# Laboratory results as given in a collection of fitness landscapes (doi:10.1016/j.celrep.2020.107928).
# The full ranking holds about 81,000 sequences; the median of “one-hybrid fitness for binding NBS DNA” is about -0.1, and the highest 2% start at about 0.36. Some of the results follow.
# B1: Caulobacter ParB omega fusion; a variant is named by its letters at X, in order, B8GW30 (parent)
# chain: MESVVVGEPGMSEGRRGLGRGLSALLGEVDAAPAQAPGEQLGGSREAPIEILQRNPDQPRRTFREEDLEDLSNSIREKGVLQPILVRPSPDTAGEYQIVAGERAWRAAQRAGLKTVPIMVRELDDLAVLEIGIIENVQRADLNVLEEALSYKVLMEKFERTQENIAQTIGKSXSHVANXMRLLXLPDEVQSYLVSGELTAXHARAIAAAADPVALAKQIIEGGLSVRETEALARKAPNLSAGKSKGGRPPRVKDTDTQALESDLSSVLGLDVSIDHRGSTGTLTITYATLEQLDDLCNRLTRGI
# Variants of: B1
# Experiment: one-hybrid fitness for binding NBS DNA (the Noc-binding site; scaled: cognate 1, non-cognate 0); higher = stronger binding
# Settings: with NBS DNA site
# Outline: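 Pre- and post-selection plasmids were Illumina-sequenced, three replicate libraries were pooled, and any variant with under 10 reads was removed. The libraries were Caulobacter ParB with four specificity codons randomised, selected in E. coli USO through a HIS3 reporter whose site is 19 bp from the promoter. Cells grew 48 hours at 37°C on M9 without histidine, with 0.1 mM IPTG and 5 mM 3-AT. Fitness is the log change in variant-to-wild-type read ratio, rescaled against cognate and non-cognate.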
row,Variant,one-hybrid fitness for binding NBS DNA
1,TTSY,≤ 0.2
2,HELS,≤ 0.2
3,RCIM,≤ 0.2
4,FFLS,≤ 0.2
5,ALTT,≤ 0.2
6,LGSV,≤ 0.2
7,GLDA,≤ 0.2
8,VERV,≤ 0.2
9,YKSS,≤ 0.2
10,LMTC,≤ 0.2
11,EYWR,≤ 0.2
12,PCHC,≤ 0.2
13,GGGL,≤ 0.2
14,DYIK,≤ 0.2
15,LNGC,≤ 0.2
16,TRTI,≤ 0.2
17,SMNN,≤ 0.2
18,LTTQ,≤ 0.2
19,APVH,≤ 0.2
20,QLYT,0.355
21,RNSY,≤ 0.2

row,Variant,one-hybrid fitness for binding NBS DNA
1,KGDM,≤ 0.2
2,TRDA,≤ 0.2
3,RVKQ,0.232
4,VENS,≤ 0.2
5,HNPW,≤ 0.2
6,PNRL,≤ 0.2
7,KTWS,≤ 0.2
8,HGPC,≤ 0.2
9,AYMF,≤ 0.2
10,QHGD,≤ 0.2
11,HQSF,≤ 0.2
12,CSCT,≤ 0.2
13,AFSH,≤ 0.2
14,DTKY,≤ 0.2
15,PLMF,≤ 0.2
16,PPDY,≤ 0.2
17,MIPT,≤ 0.2
18,QRFT,0.723
19,VLPM,≤ 0.2
20,VSLG,≤ 0.2
21,QDAA,≤ 0.2

row,Variant,one-hybrid fitness for binding NBS DNA
1,QQEI,≤ 0.2
2,NEHC,≤ 0.2
3,PSCM,≤ 0.2
4,WKFS,≤ 0.2
5,GFMG,≤ 0.2
6,QVDH,≤ 0.2
7,WHTG,≤ 0.2
8,TECS,≤ 0.2
9,RGSI,≤ 0.2
10,HNEW,≤ 0.2
11,GTTR,≤ 0.2
12,PDDT,≤ 0.2
13,AAHK,≤ 0.2
14,KNYY,≤ 0.2
15,LEHS,≤ 0.2
16,HMLD,≤ 0.2
17,KNIS,≤ 0.2
18,AMPS,≤ 0.2
19,SDHT,≤ 0.2
20,YYMS,≤ 0.2
21,TKFP,≤ 0.2

row,Variant,one-hybrid fitness for binding NBS DNA
1,TTGV,≤ 0.2
2,TQQC,≤ 0.2
3,WDPG,≤ 0.2
4,RYFP,≤ 0.2
5,KIDC,≤ 0.2
6,RLRI,≤ 0.2
7,QHHH,0.214
8,TLNI,≤ 0.2
9,VTRI,≤ 0.2
10,VMYS,≤ 0.2
11,QYHP,≤ 0.2
12,PWNL,≤ 0.2
13,RKPK,≤ 0.2
14,CPNV,≤ 0.2
15,HPIT,≤ 0.2
16,NEAF,≤ 0.2
17,RLTP,≤ 0.2
18,AEPW,≤ 0.2
19,AHAL,≤ 0.2
20,KLER,≤ 0.2
21,LIFG,≤ 0.2
